# Experimental data published in a collection of fitness landscapes (doi:10.1016/j.celrep.2020.107928).
# Whole data set: some 81,000 sequences, median “one-hybrid fitness for binding parS DNA” near -0.17, cut for the highest 2% near 0.51. Some of the results follow.
# B1: Caulobacter ParB omega fusion; a variant is named by its letters at X, in order, B8GW30 (parent)
# chain: MESVVVGEPGMSEGRRGLGRGLSALLGEVDAAPAQAPGEQLGGSREAPIEILQRNPDQPRRTFREEDLEDLSNSIREKGVLQPILVRPSPDTAGEYQIVAGERAWRAAQRAGLKTVPIMVRELDDLAVLEIGIIENVQRADLNVLEEALSYKVLMEKFERTQENIAQTIGKSXSHVANXMRLLXLPDEVQSYLVSGELTAXHARAIAAAADPVALAKQIIEGGLSVRETEALARKAPNLSAGKSKGGRPPRVKDTDTQALESDLSSVLGLDVSIDHRGSTGTLTITYATLEQLDDLCNRLTRGI
# Variants of: B1
# Assay: one-hybrid fitness for binding parS DNA (scaled: cognate 1, non-cognate 0); higher = stronger binding
# Settings: with parS DNA site
# How it was run: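 On M9-minus-histidine containing 0.1 mM IPTG and 5 mM 3-AT, E. coli USO cells with a HIS3 reporter, site 19 bp from the promoter, grew 48 hours at 37°C to select Caulobacter ParB libraries randomised at four specificity codons. Plasmids from before and after were Illumina-sequenced, with three replicate libraries pooled and variants under 10 reads left out. Fitness is the log change in variant-to-wild-type read ratio, rescaled against cognate and non-cognate.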
row,Variant,one-hybrid fitness for binding parS DNA
1,LYMV,≤ 0.2
2,HVLG,≤ 0.2
3,PMTR,≤ 0.2
4,PNYS,≤ 0.2
5,DHWC,≤ 0.2
6,MWPR,≤ 0.2
7,NRMS,≤ 0.2
8,MYPK,≤ 0.2
9,TTGE,≤ 0.2
10,DTRV,≤ 0.2
11,IKMS,≤ 0.2
12,STVG,≤ 0.2
13,LTQI,≤ 0.2
14,EMKP,≤ 0.2
15,VTHC,≤ 0.2
16,LRNR,≤ 0.2
17,EVAC,≤ 0.2
18,HSIR,≤ 0.2
19,GCNT,≤ 0.2
20,PRME,≤ 0.2
21,DSEC,≤ 0.2
22,YLFE,≤ 0.2
23,GRDS,≤ 0.2
24,PHIC,≤ 0.2

row,Variant,one-hybrid fitness for binding parS DNA
1,MHRR,≤ 0.2
2,GVWK,≤ 0.2
3,DAFN,≤ 0.2
4,MFKR,≤ 0.2
5,TDST,≤ 0.2
6,ITLR,≤ 0.2
7,HTCT,≤ 0.2
8,LGNC,≤ 0.2
9,DYSG,≤ 0.2
10,YKPV,≤ 0.2
11,QRLW,≤ 0.2
12,ASLY,≤ 0.2
13,SCAA,≤ 0.2
14,NDER,≤ 0.2
15,RYFD,≤ 0.2
16,PYSF,≤ 0.2
17,EGMD,≤ 0.2
18,QCMA,≤ 0.2
19,TIEM,≤ 0.2
20,YRCR,≤ 0.2
21,RIIP,≤ 0.2
22,LMSC,≤ 0.2
23,EVDG,≤ 0.2
24,QCGD,≤ 0.2

row,Variant,one-hybrid fitness for binding parS DNA
1,HREC,≤ 0.2
2,RWLH,≤ 0.2
3,YRSN,≤ 0.2
4,ITKT,≤ 0.2
5,KTGY,≤ 0.2
6,QWQC,≤ 0.2
7,MYAR,≤ 0.2
8,GLCS,≤ 0.2
9,LVRW,≤ 0.2
10,RNRN,0.371
11,STTE,≤ 0.2
12,AHPT,≤ 0.2
13,PCDL,≤ 0.2
14,ITRW,≤ 0.2
15,TLTM,≤ 0.2
16,RWHR,≤ 0.2
17,NLPS,≤ 0.2
18,LGTS,≤ 0.2
19,SYGI,≤ 0.2
20,VYSV,≤ 0.2
21,MTTL,≤ 0.2
22,LHTY,≤ 0.2
23,AQHC,≤ 0.2
24,QHHG,≤ 0.2

row,Variant,one-hybrid fitness for binding parS DNA
1,SERK,≤ 0.2
2,FCDR,≤ 0.2
3,FMQS,≤ 0.2
4,VRGI,≤ 0.2
5,PPHA,≤ 0.2
6,VGQG,≤ 0.2
7,QNFY,≤ 0.2
8,PNQC,≤ 0.2
9,FPPV,≤ 0.2
10,TPFS,≤ 0.2
11,NLMS,≤ 0.2
12,NAVI,≤ 0.2
13,THEC,≤ 0.2
14,AWVG,≤ 0.2
15,KPTR,≤ 0.2
16,QKND,≤ 0.2
17,SRPD,≤ 0.2
18,FLDD,≤ 0.2
19,LSKI,≤ 0.2
20,TTHR,≤ 0.2
21,MAPM,≤ 0.2
22,SQRI,≤ 0.2
23,AHWS,≤ 0.2
24,LYLN,≤ 0.2

row,Variant,one-hybrid fitness for binding parS DNA
1,RPPW,≤ 0.2
2,IMPI,≤ 0.2
3,IIEY,≤ 0.2
4,WSDR,≤ 0.2
5,SLGF,≤ 0.2
6,NPCL,≤ 0.2
7,YAKC,≤ 0.2
8,QSLV,≤ 0.2
9,ISGW,≤ 0.2
10,RACP,≤ 0.2
11,QEKT,≤ 0.2
12,KPSW,≤ 0.2
13,SYTL,≤ 0.2
14,RPFV,≤ 0.2
15,ANLR,≤ 0.2
16,EAFT,≤ 0.2
17,LDIR,≤ 0.2
18,QAHR,≤ 0.2
19,FRAN,≤ 0.2
20,EGRR,≤ 0.2
21,PSNI,≤ 0.2
22,GEDK,≤ 0.2
23,PQRM,≤ 0.2
24,TMMC,≤ 0.2

row,Variant,one-hybrid fitness for binding parS DNA
1,MDVC,≤ 0.2
2,RMTF,0.268
3,KHEC,≤ 0.2
4,QAWR,≤ 0.2
5,CAGR,≤ 0.2
6,SYIK,≤ 0.2
7,RGDG,0.496
8,NYYW,≤ 0.2
9,AAYT,≤ 0.2
10,AVMD,≤ 0.2
11,SKGD,≤ 0.2
12,LWNE,≤ 0.2
13,RCQM,0.303
14,KLLS,≤ 0.2
15,QAQW,≤ 0.2
16,KVKG,≤ 0.2
17,LSVT,≤ 0.2
18,YTAM,≤ 0.2
19,RKHY,0.375
20,MAVC,≤ 0.2
21,EQLF,≤ 0.2
22,PSKP,≤ 0.2
23,MSRW,≤ 0.2
24,PDSN,≤ 0.2

row,Variant,one-hybrid fitness for binding parS DNA
1,AGLM,≤ 0.2
2,ADCV,≤ 0.2
3,KWTC,≤ 0.2
4,VDTS,≤ 0.2
5,PSRV,≤ 0.2
6,ILLR,≤ 0.2
7,IPWS,≤ 0.2
8,MNKC,≤ 0.2
9,ISQR,≤ 0.2
10,ELTQ,≤ 0.2
11,TCEC,≤ 0.2
12,RPLE,≤ 0.2
13,LKPR,≤ 0.2
14,EGPL,≤ 0.2
15,CAKR,≤ 0.2
16,LTRM,≤ 0.2
17,RPDN,≤ 0.2
18,LSIF,≤ 0.2
19,ETRI,≤ 0.2
20,PEPT,≤ 0.2
21,RVHK,≤ 0.2
22,YATT,≤ 0.2
23,DLGS,≤ 0.2
24,EAKW,≤ 0.2

row,Variant,one-hybrid fitness for binding parS DNA
1,HLFG,≤ 0.2
2,TSHD,≤ 0.2
3,LRLA,≤ 0.2
4,RGPH,≤ 0.2
5,EAHT,≤ 0.2
6,VLPK,≤ 0.2
7,LVNC,≤ 0.2
8,WWAK,≤ 0.2
9,ATGR,≤ 0.2
10,NDLV,≤ 0.2
11,LIKH,≤ 0.2
12,SCYH,≤ 0.2
13,QITI,≤ 0.2
14,ETEC,≤ 0.2
15,QWSW,≤ 0.2
16,ALNP,≤ 0.2
17,DLYA,≤ 0.2
18,YPLH,0.22
19,PFRV,≤ 0.2
20,PMNT,≤ 0.2
21,TRNL,≤ 0.2
22,YCMF,≤ 0.2
23,SIIA,≤ 0.2
24,VRDR,≤ 0.2

row,Variant,one-hybrid fitness for binding parS DNA
1,YQRR,≤ 0.2
2,GPRI,≤ 0.2
3,RKGM,0.262
4,VSVS,≤ 0.2
5,LSLI,≤ 0.2
6,QHRC,≤ 0.2
7,HNTL,≤ 0.2
8,HLNT,≤ 0.2
9,WWHS,≤ 0.2
10,PTFH,≤ 0.2
11,VMRA,≤ 0.2
12,NRSF,≤ 0.2
13,KTML,≤ 0.2
14,YCNR,≤ 0.2
15,LIVS,≤ 0.2
16,SQRY,≤ 0.2
17,MKRV,≤ 0.2
18,WEPT,≤ 0.2
19,TGHP,≤ 0.2
20,HLMR,≤ 0.2
21,ENGS,≤ 0.2
22,QKRH,≤ 0.2
23,HFPF,≤ 0.2
24,PGPQ,≤ 0.2

row,Variant,one-hybrid fitness for binding parS DNA
1,AMVT,≤ 0.2
2,PHCN,≤ 0.2
3,HASC,≤ 0.2
4,CETL,≤ 0.2
5,SVNL,≤ 0.2
6,YFQV,≤ 0.2
7,QWMA,≤ 0.2
8,AFMG,≤ 0.2
9,FERS,≤ 0.2
10,QVKG,≤ 0.2
11,QLSD,≤ 0.2
12,LPLM,≤ 0.2
13,DRSV,≤ 0.2
14,WIDE,≤ 0.2
15,RRHR,≤ 0.2
16,CMAT,≤ 0.2
17,ISAW,≤ 0.2
18,LGCI,≤ 0.2
19,RHEV,≤ 0.2
20,PPSR,≤ 0.2
21,YMNG,≤ 0.2
22,TKCD,≤ 0.2
23,PHPR,≤ 0.2
24,ELAE,≤ 0.2

row,Variant,one-hybrid fitness for binding parS DNA
1,YPNG,≤ 0.2
2,DASE,≤ 0.2
3,QVHH,≤ 0.2
4,ETTI,≤ 0.2
5,GAPW,≤ 0.2
6,TCWG,≤ 0.2
7,KSLE,≤ 0.2
8,IKEY,≤ 0.2
9,WHYT,≤ 0.2
10,QKLQ,≤ 0.2
11,DASA,≤ 0.2
12,REHD,≤ 0.2
13,RMDA,0.572
14,PSGP,≤ 0.2
15,CFRM,≤ 0.2
16,ASGY,≤ 0.2
17,VTES,≤ 0.2
18,VFFC,≤ 0.2
19,QKNC,≤ 0.2
20,SKKL,≤ 0.2
21,PSRT,≤ 0.2
22,ETVV,≤ 0.2
23,ARIA,≤ 0.2
24,TKTV,≤ 0.2

row,Variant,one-hybrid fitness for binding parS DNA
1,RFPY,≤ 0.2
2,PVRS,≤ 0.2
3,AQPC,≤ 0.2
4,GCYG,≤ 0.2
5,VPFV,≤ 0.2
6,ANRG,≤ 0.2
7,DRSN,≤ 0.2
8,TFAC,≤ 0.2
9,RKCG,0.971
10,LMFW,≤ 0.2
11,APSG,≤ 0.2
12,INIC,≤ 0.2
13,LYHA,≤ 0.2
14,DDFR,≤ 0.2
15,WVVM,≤ 0.2
16,RGYS,0.586
17,WGCV,≤ 0.2
18,PSGR,≤ 0.2
19,TVME,≤ 0.2
20,RNCL,≤ 0.2
21,SNDC,≤ 0.2
22,RNYR,≤ 0.2
23,RMAD,0.207
24,SSGD,≤ 0.2

row,Variant,one-hybrid fitness for binding parS DNA
1,RSNF,0.224
2,VANT,≤ 0.2
3,NLHI,≤ 0.2
4,WKLG,≤ 0.2
5,CIVT,≤ 0.2
6,FVTG,≤ 0.2
7,HPAS,≤ 0.2
8,MTET,≤ 0.2
9,PHSN,≤ 0.2
10,RWFV,≤ 0.2
11,QWGC,≤ 0.2
12,MNHC,≤ 0.2
13,FIWV,≤ 0.2
14,PAIK,≤ 0.2
15,WVPS,≤ 0.2
16,RISK,≤ 0.2
17,ICDG,≤ 0.2
18,LQAE,≤ 0.2
